In the supplement of paper PMC3334620:
In all, about 33,000 sequences were measured (“E-score (-0.5 to 0.5)”: median about -0.01, highest 2% from about 0.26 on). This is one part of the list.

These sequences were tested against Ste12 (UniProt P13574) (assay: PBM E-score (8-mer binding enrichment) (E-score (-0.5 to 0.5)); higher = stronger / more preferred TF binding; most listed sequences are background and not binding sites). Settings: protein concentration: 200 nM; construct: GST-DNA-binding domain.
Summary of the method: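 Universal all-10-mer Agilent arrays, fresh or stripped once, were converted to double-stranded form by primer extension. GST-tagged yeast transcription factors from PURExpress in vitro transcription/translation, full-length or DNA-binding domain only, were applied at about 100-200 nM and detected with fluorescent anti-GST. After masliner normalisation, the Universal PBM Analysis Suite scored each ungapped eight-base word together with its reverse complement by E-score.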

Sequence	PBM E-score
GGGGTCCA	-0.154
ACGAGGCA	-0.118
CAAGGTAG	-0.0188
CACGAGGC	-0.096
CGGCAAAA	0.157
GCCATCGA	-0.141
CAGGAGGC	-0.157
CGCCGGAG	0.0534
AACTAAAC	0.144
CTTTCGCA	0.00052
ATCTAAAT	0.172
CTTCGGTC	-0.0601
GAATGATA	0.309
AAAACTCA	0.219
ACGGCACT	-0.0846
CATCGACC	0.122
CGTGTGAG	0.0368
TATGAAGA	0.0389
GCATTTTA	0.165
AGATGTGA	0.262
AAGCAATT	0.145
ACGCTGAC	-0.194
GTACCAAC	-0.122
ATCGAAAC	0.324
GCCTAAAA	-0.0428

Sequence	PBM E-score
CCTGCGCA	-0.0798
CAGGCCCA	-0.103
CCAGTTCG	0.0342
AGGAATCC	0.00237
CTTACGCC	0.0289
ATCGGGTA	-0.0385
TACATCGA	0.065
CAGTGACG	0.111
GCTGTTAA	0.11
ACGCGTTG	-0.158
ACAGCTAT	-0.279
CCGTCCTA	-0.138
AGTGTTCG	-0.0556
AATAACGA	-0.044
CGATACCC	-0.07
CATACATA	0.124
AATCGAGT	0.0323
AGACAGGC	-0.0382
AAGGTCCT	-0.0872
ATACACGA	-0.0503
CGACCACC	-0.0645
GATGTTTA	0.191
ATAATAGA	0.164
CTACCACC	-0.102
GTGACCCA	-0.0572

Sequence	PBM E-score
CGTGCACG	0.126
ATCCGCGG	-0.0129
CCACCACC	-0.0881
AATTGAAT	0.131
ACGGCCAA	-0.0542
AGCAACTC	-0.0843
CGTCTCGC	-0.207
AATCTGAA	0.207
CAAGCAGG	-0.0299
CACAGACC	-0.0751
AATCTAGC	-0.102
GCATCAGC	0.034
TAGCATCA	0.0202
TCCCAAAA	0.172
CTCCGTTC	-0.0781
ACAGATCA	-0.00243
GGCGTGGA	-0.0873
CACTCTCA	-0.0633
GAAATTAA	0.294
CACATAGA	-0.0651
ATTTATCC	0.181
TAAAATTA	0.258
AGAACCCG	-0.0568
CCTTACGA	0.0728
ATCTCTAA	0.0731

Sequence	PBM E-score
TCATAACA	0.1
CAGTTGGA	-0.0986
GACTATCA	-0.0567
ATCAAAAC	0.197
CGTCGATA	-0.0294
CTGATTCA	0.125
TCTCACAA	0.162
AAAGGCTC	-0.025
ACCTCTTA	0.135
AATATGCA	-0.0314
AATGAGCT	0.0428
ATCGCAAC	0.0102
GATGTAGC	-0.152
GGAAGTCC	-0.116
ATCAGACC	0.102
CTGGACCC	-0.195
ACGATCTA	-0.0577
ACTCAAGC	-0.137
GATCGCAC	-0.0476
CGGTAAAG	0.138
GACAGCAA	0.0122
ACTGGTCG	-0.0963
ACGAGGGC	0.0351
GCCTCATA	0.113
AGTAATCC	-0.0677

Sequence	PBM E-score
AGGGCGAG	-0.143
ATGTTAAA	0.217
CATTGCCC	-0.00338
ACGGATGG	0.031
GAAGAGTC	-0.156
CCCTGATA	-0.105
GGACAGAA	0.136
ATGAGCGC	-0.0454
AAAGATTA	0.129
CGCTCTTC	0.00173
GATTCCGA	0.152
AAACTAGT	0.123
GGACGATA	-0.13
CGTCGCGC	0.00057
ATACGAGG	-0.0353
AGCCGCGA	0.0422
CAGACTCA	-0.224
GTACACCA	-0.0485
ACTCGCCG	0.198
CATCCCGC	0.0907
ACACGAAG	0.0728
AGGAAAGG	-0.348
ACCGTGAG	-0.132
CTAGATCA	-0.22
TTAAGGAA	0.05

Sequence	PBM E-score
GATGCAAC	-0.0126
CGTTCAAC	-0.0534
CTTGCTGC	-0.0531
CGCAGTAC	0.0244
GACGGGCA	-0.0533
AACTCGAA	0.0844
AGCTCATC	-0.145
ACGTTATG	0.0951
CATGGCTA	-0.02
GCTTATTA	0.0471
TCGCCTAA	0.017
CCTAACAG	0.0231
ATGGCAAG	-0.0558
AGTATCAG	0.00443
AAGAGCAT	-0.0195
ACATGGTG	0.015
ACGGGACC	-0.233
CTCGAGGA	-0.0933
TAACGGAA	0.148
CACTTGGG	-0.173
ACCCGGGT	0.0381
AGCGCTTC	-0.00812
CAAAATGG	0.189
CCCGAACG	-0.0742
CTAAAAGC	-0.0594

Sequence	PBM E-score
CCCCCTTC	-0.352
CAACATTC	-0.154
TGCCACAA	0.0743
CGTTACGC	0.0467
CTTTGAGA	0.114
ATTCCGCA	0.0429
AACCCATG	-0.0393
AAATGTTC	-0.0179
GACCCGCC	0.121
ATCACATG	-0.0707
ACAACGGA	-0.0274
ATAAGTGA	0.112
AGCTGCCC	0.0132
AGCGTAGA	-0.0606
AATCAGGA	-0.0499
GCCAATAC	-0.0532
ACCACGAC	-0.0312
GCTTGCGA	0.0839
ATTCATTG	-0.026
AAGCTCAC	-0.256
AGATGGCT	-0.0505
CCCCTCGG	-0.0763
CTACATAG	0.121
CTGATCCC	-0.101
AGAGACTA	-0.105

Sequence	PBM E-score
CACAGCTC	-0.189
CAACTTCC	0.0895
ACCTAGTG	-0.0568
AAATTCTG	0.128
AAGATTGG	0.0214
GGCACGAC	-0.113
CCGATCCC	-0.219
CGTCGTAA	-0.00425
CACAGATC	0.026
AATGGGTC	0.0131
TCTTGCCA	-0.122
TCAGGGAA	-0.032
GCGCCATA	-0.0446
AGTTTGCA	0.0395
AAATGCAG	-0.0265
CATGTTTA	0.199
ACCATAAT	0.114
CCCAGGCG	0.0763
CTCTTCTC	-0.161
CATTCACA	0.197
ACTTGCTC	-0.136
ACCGACGT	-0.0609
ATCTACTG	0.0446
GCACGTTA	0.0558
CCGGCAAA	0.116

Sequence	PBM E-score
AGCACAAT	-0.16
ACACCATC	-0.0878
GTAATAAA	0.198
GTCAGTTA	-0.0112
CATGTGGG	-0.0199
AACGGTTC	-0.0882
CACAGTGA	0.0133
ACCTGTTC	-0.0664
AAAGACAA	0.00136
AGAATGCC	-0.151
GATTTGTA	0.149
GTTGTTGA	0.0783
CGCTTTAG	0.0782
TAGAAATA	0.152
AGTGAACA	-0.0685
TGGTCGAA	-0.294
CAAACCCG	0.0369
AGTTAGCC	-0.167
GATCTATA	0.122
